{"source": "PubChem BioAssay AID588342", "about": "(National Center for Advancing Translational Sciences (NCATS), 2011)", "note": "In all, about 360,000 compounds went through this assay and about 25,000 (6.9%) were called active. Inconclusive results, whose numbers are uncertain, are shown with a selection of clear calls. Calls follow the shape of the dose curve; as a rule, active = well fitted inhibition curve with a large enough effect; inconclusive = small, poorly fitted or top-dose-only effect; inactive = flat fitted curve, though single readings scatter. Potencies of inconclusive entries are doubtful fits and often do not repeat. Potency is read from the fitted curve at half-maximal effect; tags tell the direction and shape of the fitted curve."}
{"molecular_target": "Luciferin 4-monooxygenase (Photinus pyralis) (UniProt P08659)", "sequence (P08659 whole entry, looked up)": "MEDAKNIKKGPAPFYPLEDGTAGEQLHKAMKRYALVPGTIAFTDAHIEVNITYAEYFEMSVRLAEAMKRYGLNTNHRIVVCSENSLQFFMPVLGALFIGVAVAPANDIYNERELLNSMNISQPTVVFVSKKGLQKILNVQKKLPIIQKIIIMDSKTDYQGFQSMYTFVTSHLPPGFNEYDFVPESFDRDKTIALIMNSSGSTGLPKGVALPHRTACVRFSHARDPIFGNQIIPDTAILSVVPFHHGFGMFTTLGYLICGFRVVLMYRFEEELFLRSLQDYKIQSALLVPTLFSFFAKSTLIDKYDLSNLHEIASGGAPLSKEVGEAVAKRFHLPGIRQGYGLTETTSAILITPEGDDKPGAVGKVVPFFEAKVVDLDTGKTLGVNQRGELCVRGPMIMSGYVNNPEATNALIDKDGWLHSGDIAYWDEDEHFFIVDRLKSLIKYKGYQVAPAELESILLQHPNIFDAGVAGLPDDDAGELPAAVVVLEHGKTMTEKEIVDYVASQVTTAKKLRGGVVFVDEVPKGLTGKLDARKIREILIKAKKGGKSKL", "experiment": "qHTS profiling assay for firefly luciferase inhibitor/activator using purifed enzyme and Km concentrations of substrates (counterscreen for miR-21 project); also: nearly all actives have a fitted effect of over 55% in size", "conditions": "purified FLuc, luminescence inhibition; series mostly up to 57.5 µM", "summary_of_the_method": "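Purified P. pyralis luciferase (10nM final) with 10uM D-luciferin and 10uM ATP (Km levels) in 50mM Tris acetate pH 7.5, 10mM Mg acetate, 0.01% Tween-20, 0.05% BSA; qHTS 6-point titration, ~60 µM downward; luminescence read.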"}
{"smiles": "COc1ccc(C(=O)/C=C\\N2CCOCC2)cc1", "Potency": "active: 23.9 µM"}
{"smiles": "CCCCOc1ccc(S(=O)(=O)Nc2ccc(-c3ccc(N4CCC(C)CC4)nn3)cc2)cc1", "Potency": "inconclusive: 9.53 µM [inhibitor, partial curve]"}
{"smiles": "Cc1cccc(C(=O)Oc2ccc(/C=N/O)cc2)c1", "Potency": "active: 7.57 µM"}
{"smiles": "COc1ccc(NC(=O)CSc2nnc3n2CCCCC3)cc1", "Potency": "inactive"}
{"smiles": "CCCCCC(=O)Nc1cccc(C2=NOC3(C2)C[C@@H](C(N)=O)N(C(=O)c2cc([N+](=O)[O-])cc([N+](=O)[O-])c2)C3)c1", "note": "(stereo partly drawn)", "Potency": "inconclusive: 23.9 µM [inhibitor, partial curve, poor fit]"}
{"smiles": "CC(=O)c1oc2ccccc2c1NC(=O)CN1CCCCC1", "Potency": "inconclusive: 23.9 µM [inhibitor, partial curve, poor fit]"}
{"smiles": "C/C(=N/NC(=O)c1ccc(O)cc1)c1cccc([N+](=O)[O-])c1", "Potency": "inconclusive: 26.9 µM [inhibitor, single point]"}
{"smiles": "NC(=S)N/N=C\\c1c2ccccc2cc2ccccc12", "Potency": "inconclusive: 21.3 µM [inhibitor, partial curve, poor fit]"}
{"smiles": "Cc1ccc(-c2csc(NC(=O)c3c(C)noc3C)n2)cc1C", "Potency": "inconclusive: 26.9 µM [inhibitor, partial curve, poor fit]"}
{"smiles": "COc1cccc(-c2nnc(SCC(=O)NC3CCCCC3)o2)c1", "Potency": "inconclusive: 30.1 µM [inhibitor, partial curve, poor fit]"}
{"smiles": "COc1ccc(S(=O)(=O)Nc2ccc(-c3cn4ccsc4n3)cc2)cc1C", "Potency": "inconclusive: 30.1 µM [inhibitor, partial curve, poor fit]"}
{"smiles": "CCOC(=O)c1c(NC(=O)COC(=O)Cc2c[nH]c3ccccc23)sc(C(=O)N(C)C)c1C", "Potency": "inactive"}
{"smiles": "Cc1ccc2c(COC(=O)c3ccc(C)c(C)c3)cc(=O)oc2c1", "Potency": "inactive"}
{"smiles": "CCOc1ccc(-c2cc(C(=O)N/N=C(\\C)c3cccnc3)c3ccccc3n2)c(OCC)c1", "Potency": "inconclusive: 13.5 µM [inhibitor, partial curve, poor fit]"}
{"smiles": "COCCCn1c(-c2cccs2)nc2nc3ccccc3nc21", "Potency": "inconclusive: 21.3 µM [inhibitor, partial curve]"}
{"smiles": "c1ccc(CCCc2nc(-c3cccnc3)no2)cc1", "Potency": "inconclusive: 37.9 µM [inhibitor, partial curve, poor fit]"}
{"smiles": "CCC(=O)Nc1cccc(C(=O)c2ccc(C)c(C)c2)c1", "Potency": "inconclusive: 23.9 µM [inhibitor, partial curve, poor fit]"}
{"smiles": "OCCCNc1nc(-c2ccc(Cl)cc2)nnc1-c1ccccc1", "Potency": "inconclusive: 23.9 µM [inhibitor, partial curve, poor fit]"}
{"smiles": "O=C(Nc1ncc2c(n1)-c1ccccc1CC2)c1ccc(Cl)cc1", "Potency": "inconclusive: 30.1 µM [inhibitor, partial curve, poor fit]"}
{"smiles": "COc1ccc(-c2cc(C(=O)Oc3ccc([N+](=O)[O-])cc3)c3ccccc3n2)cc1", "Potency": "active: 5.36 µM"}
{"smiles": "O=S(=O)(c1cc(Cl)ccc1Cl)n1cccn1", "Potency": "inactive"}
{"smiles": "O=C(COc1ccccc1F)Nc1nnc(SCc2cc(=O)c3ccccc3[nH]2)s1", "Potency": "inconclusive: 30.1 µM [inhibitor, single point]"}
{"smiles": "CC1(C)CC(=O)C(N=Nc2cc(Cl)c(Cl)c(Cl)c2)=C(O)C1", "Potency": "inconclusive: 23.9 µM [inhibitor, partial curve, poor fit]"}
{"smiles": "CC(C)OC(=O)c1c(NC(=O)c2ccco2)sc2c1CCCCC2", "Potency": "inconclusive: 26.9 µM [inhibitor, partial curve]"}
{"smiles": "Cc1c(NC(=O)c2cc(-c3cccc(O)c3)on2)c(=O)n(-c2ccccc2)n1C", "Potency": "inactive"}
{"smiles": "COc1cccc(/C=N/N2CCN(c3ccccc3OC)CC2)c1", "Potency": "active: 12 µM"}
{"smiles": "CCOC(=O)c1c(C)nc(C)c(C(=O)OCC)c1-c1ccc(O)c(OC)c1", "Potency": "inactive"}
{"smiles": "CCOC(=O)c1cc(-c2ccccc2)nn1Cc1cc(C)no1", "Potency": "inconclusive: 23.9 µM [inhibitor, partial curve]"}
{"smiles": "CN(CC(=O)Nc1ccc(F)c(F)c1F)C(=O)CC1CCCCC1", "Potency": "inactive"}
{"smiles": "CC1CCN(C(=S)SCc2nc(N)nc(Nc3ccccc3)n2)CC1", "Potency": "inconclusive: 30.1 µM [inhibitor, partial curve, poor fit]"}
{"smiles": "CC1Oc2ccccc2C=C1/C=N\\NC(=O)c1cccnc1", "note": "(stereo not drawn)", "Potency": "active: 16.9 µM"}
{"smiles": "COc1ccc(C2C(C#N)=C(N)N(Nc3ccccc3)C3=C2C(=O)CC(C)(C)C3)cc1C", "note": "(stereo not drawn)", "Potency": "inactive"}
{"smiles": "CC(C)(C)c1ccc(COc2ccsc2C(=O)O)cc1", "Potency": "active: 15.1 µM"}
{"smiles": "CCC1CCCCN1C(=O)CSc1nnc(-c2ccc3c(c2)OCCO3)o1", "note": "(stereo not drawn)", "Potency": "inconclusive: 16.9 µM [inhibitor, partial curve]"}
{"smiles": "O=c1c2c(nc3c(-c4ccccc4)c[nH]n13)CCC2", "Potency": "inconclusive: 16.9 µM [inhibitor, partial curve]"}
{"smiles": "CC(=O)c1ccc(-c2nnc(CCC(=O)N3CCCC(C(=O)CC(C)C)C3)o2)s1", "note": "(stereo not drawn)", "Potency": "active: 19 µM"}
{"smiles": "COCC(C)n1c(C)cc(C(=O)CSc2nnnn2-c2ccc(O)cc2)c1C", "note": "(stereo not drawn)", "Potency": "active: 21.3 µM"}
{"smiles": "CC(C)(C)c1ccc(CNc2cc(N3CCOCC3)ccc2[N+](=O)[O-])cc1", "Potency": "inconclusive: 10.7 µM [inhibitor, partial curve, poor fit]"}
{"smiles": "COC(=O)[C@H](Cc1ccccc1)NC(=O)NCc1ccc(C)cc1", "Potency": "active: 21.3 µM"}
{"smiles": "O=C(CCCOc1ccc(Cl)cc1Cl)NCC1CCCO1", "note": "(stereo not drawn)", "Potency": "inconclusive: 37.9 µM [inhibitor, partial curve, poor fit]"}
{"smiles": "COc1ccccc1N1CCN(C(=O)Nc2ccc([N+](=O)[O-])cc2)CC1", "Potency": "inactive"}
{"smiles": "COC(=O)c1sccc1NC(=O)COc1ccccc1Cl", "Potency": "inconclusive: 23.9 µM [inhibitor, partial curve, poor fit]"}
{"smiles": "O=C(Nc1cccc(Cl)c1)c1cccnn1", "Potency": "inactive"}
{"smiles": "CN1C=CC=C/C1=C1/N=C(c2ccccc2)OC1=O", "Potency": "inconclusive: 26.9 µM [inhibitor, partial curve, poor fit]"}
{"smiles": "O=C1NCC(c2ccccc2)C1C(=O)N/N=C\\c1ccc(-c2ccc(Cl)c(Cl)c2)o1", "note": "(stereo not drawn)", "Potency": "inconclusive: 23.9 µM [inhibitor, partial curve, poor fit]"}
{"smiles": "Cn1c(/C(C#N)=C(\\O)c2ccc(Br)s2)nc2ccccc21", "Potency": "inactive"}
{"smiles": "O=C1CCCCC1Sc1nnc(Nc2ccccc2)s1", "note": "(stereo not drawn)", "Potency": "active: 19 µM"}
{"smiles": "CCN(Cc1ccc2c(c1)OCO2)C(=O)/C=C/c1cccc(Br)c1", "Potency": "inactive"}
{"smiles": "O=C(C[n+]1ccc(C(=O)NCc2ccccc2)cc1)c1ccc(OC(F)F)cc1", "Potency": "inactive"}
{"smiles": "CN(C)c1nc(=Nc2cccc(Cl)c2)ss1", "Potency": "active: 3.38 µM"}
{"smiles": "Cc1ccc2nc(-c3cccc(S(=O)(=O)N4CC(C)OC(C)C4)c3)cn2c1", "note": "(stereo not drawn)", "Potency": "active: 13.5 µM"}
{"smiles": "COc1ccc2nc(NC(=O)CSc3nccc(C)n3)sc2c1", "Potency": "inconclusive: 26.9 µM [inhibitor, single point]"}
{"smiles": "CCN(CC)S(=O)(=O)c1ccc2c(c1)C(=NO)c1cc(S(=O)(=O)N(CC)CC)ccc1-2", "Potency": "inactive"}
{"smiles": "CC(C)[C@H](NC(=O)NCc1ccco1)C(=O)O", "Potency": "inactive"}
{"smiles": "CCc1ccccc1NC(=O)c1ccc(CN2C(=O)CCn3nc(C)cc32)cc1", "Potency": "inactive"}
{"smiles": "CCOC(=O)c1cc(C#N)c(N2CCN(c3ccc(OC)cc3)CC2)[nH]c1=O", "Potency": "inconclusive: 30.1 µM [inhibitor, single point]"}
{"smiles": "COc1ccc(/C=C(/CC(=O)Nc2ccc(C)cc2)c2nc3ccccc3s2)cc1", "Potency": "inconclusive: 16.9 µM [inhibitor, partial curve]"}
{"smiles": "CC(C)c1ccc(NC2=NCC(=O)N2Cc2cccs2)cc1", "Potency": "inconclusive: 23.9 µM [inhibitor, single point]"}
{"smiles": "COc1ccccc1NC(=S)N(Cc1ccco1)Cc1cc2cc(C)cc(C)c2[nH]c1=O", "Potency": "inactive"}
{"smiles": "Cn1cc(CNC(=O)c2cc(-c3ccc(Br)cc3)nc3ccccc23)cn1", "Potency": "inconclusive: 8.49 µM [inhibitor, partial curve, poor fit]"}
{"smiles": "COc1cc2c(cc1OC)n(Cc1ccc([N+](=O)[O-])cc1)c(=O)n1nc(-c3ccccc3)nc21", "Potency": "inactive"}
{"smiles": "CCCC1c2ccc(C)n2CCN1C(=O)Nc1ccc(F)cc1", "note": "(stereo not drawn)", "Potency": "inconclusive: 30.1 µM [inhibitor, partial curve, poor fit]"}
{"smiles": "CCOC(=O)/C(=C\\C=C1/Sc2cc(OCC)c(OCC)cc2N1CC)C(C)=O", "Potency": "inactive"}
{"smiles": "CC1CCN(c2nc3c(S(=O)(=O)c4ccc(Cl)cc4)nnn3c3ccsc23)CC1", "Potency": "inactive"}
{"smiles": "Cc1cccc(-n2ncc3c(NCCCO)ncnc32)c1", "Potency": "active: 6.75 µM"}
{"smiles": "Cc1ccc(C(=O)Nc2ccc(C(=O)N/N=C/c3c[nH]c4ccccc34)cc2)cc1", "Potency": "inconclusive: 12 µM [inhibitor, partial curve]"}
{"smiles": "C/C(=N\\NC(=O)c1ccc(F)cc1)c1ccc(N2CCOCC2)cc1", "Potency": "inconclusive: 21.3 µM [inhibitor, partial curve]"}
{"smiles": "COc1cccc(CNC(=O)CCC2CCCN(C(=O)Cc3ccccc3F)C2)c1", "note": "(stereo not drawn)", "Potency": "inactive"}
{"smiles": "C=CCNC(=O)C(=O)NCCOc1ccccc1Cl", "Potency": "inconclusive: 30.1 µM [inhibitor, partial curve, poor fit]"}
{"smiles": "COC(=O)c1cc2nc(-c3ccccc3)cc(C)n2n1", "Potency": "inactive"}
{"smiles": "COc1ccc(-c2ccc(NS(=O)(=O)c3cccc(C)c3)cc2)nn1", "Potency": "inactive"}
{"smiles": "COc1nc(Nc2cccc(C)c2)nc(N2CCCCC2)n1", "Potency": "inconclusive: 37.9 µM [inhibitor, partial curve, poor fit]"}
{"smiles": "CC1(C)CC(=O)C(C2C3=C(CC(C)(C)CC3=O)Oc3ccc4ccccc4c32)C(=O)C1", "note": "(stereo not drawn)", "Potency": "inconclusive: 30.1 µM [inhibitor, partial curve, poor fit]"}
